# Some of the results follow.
# B1: CML1 (Coprinopsis cinerea) (protein)
# chain: MAIFHTGSELFIITRGPGKLTLLTWGGLNNLRSVIGAIPTENTGVTKWAVSFSHNYTRFSFIWEGQGEACYQIGNGLTRSPVGRSWSSSSTIHWGSSTVITEDVTSVVPGAVNRDKVTTAYALPDNL
# Tests used:
# Experiment in all cases: glycan array binding signal (z-score within array); higher = stronger binding
# Conditions in all cases: glycan notation: IUPAC condensed, linker removed
# [1] = target: Gal6S(b1-4)Glc
# Outline: (§1)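 Glycan array data were curated from 3228 arrays in the Consortium for Functional Glycomics database and kept only where the protein sequence was available. Glycan names were converted to IUPAC-condensed notation, and columns mapping to the same glycan were averaged. The binding signal is a within-array Z-score, averaged across arrays of the same protein sequence at different concentrations or buffers and across linkers. Negative Z-scores can be read as non-binding.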
# [2] = target: Gal6S(b1-4)Glc6S
# Outline: as §1
# [3] = target: Gal6S(b1-4)GlcNAc
# Outline: as §1
# [4] = target: Gal6S(b1-4)GlcNAc6S
# Outline: as §1
# [5] = target: GalNAc(a1-3)Gal
# Outline: as §1
# [6] = target: GalNAc(a1-3)GalNAc
# Outline: as §1
# [7] = target: GalNAc(a1-3)GalNAc(b1-3)Gal(a1-4)Gal(b1-4)Glc
# Outline: as §1
# [8] = target: GalNAc(a1-3)GalNAc(b1-3)Gal(a1-4)Gal(b1-4)GlcNAc
# Outline: as §1
# [9] = target: GalNAc(b1-3)Gal
# Outline: as §1
# [10] = target: GalNAc(b1-3)Gal(a1-4)Gal(b1-4)GlcNAc
# Outline: as §1
# [11] = target: GalNAc(b1-3)Gal(a1-4)Gal(b1-4)GlcNAc(b1-3)Gal(b1-4)Glc
# Outline: as §1
# [12] = target: GalNAc(b1-3)Gal(a1-6)Gal(b1-4)Glc
# Outline: as §1
# [13] = target: GalNAc(b1-3)GalNAc
# Outline: as §1
# [14] = target: GalNAc(b1-3)GlcNAc
# Outline: as §1
# [15] = target: GalNAc(b1-4)Gal(b1-4)Glc
# Outline: as §1
# [16] = target: GalNAc(b1-4)GlcNAc
# Outline: as §1
# [17] = target: GalNAc(b1-4)GlcNAc(b1-2)Man
# Outline: as §1
# [18] = target: GalNAc(b1-4)GlcNAc(b1-2)Man(a1-3)[GalNAc(b1-4)GlcNAc(b1-2)Man(a1-6)]Man(b1-4)GlcNAc(b1-4)GlcNAc
# Outline: as §1
# [19] = target: GalNAc(b1-4)GlcNAc(b1-3)GalNAc(b1-4)GlcNAc
# Outline: as §1
# [20] = target: GalNAc(b1-4)GlcNAc6S
# Outline: as §1
# [21] = target: GalNAc(b1-6)GalNAc
# Outline: as §1
# [22] = target: GalNAc3S(b1-4)GlcNAc
# Outline: as §1
# [23] = target: GalNAc3S(b1-4)GlcNAc3S
# Outline: as §1
# [24] = target: GalNAc3S(b1-4)[Fuc(a1-3)]GlcNAc
# Outline: as §1
# [25] = target: GalNAc4S6S(b1-4)GlcNAc
# Outline: as §1
# [26] = target: GalNAc6S(b1-4)GlcNAc
# Outline: as §1
# [27] = target: Glc(a1-4)Glc
# Outline: as §1
# [28] = target: Glc(a1-4)Glc(a1-4)Glc(a1-4)Glc
# Outline: as §1
# [29] = target: Glc(a1-6)Glc(a1-6)Glc
# Outline: as §1
# [30] = target: Glc(a1-6)Glc(a1-6)Glc(a1-6)Glc
# Outline: as §1
# [31] = target: Glc(b1-4)Glc
# Outline: as §1
# [32] = target: Glc(b1-6)Glc
# Outline: as §1
# [33] = target: GlcA(b1-3)Gal
# Outline: as §1
# [34] = target: GlcA(b1-3)GlcNAc
# Outline: as §1
# [35] = target: GlcA(b1-6)Gal
# Outline: as §1
# [36] = target: GlcA3S(b1-3)Gal(b1-4)GlcNAc(b1-2)Man
# Outline: as §1
# [37] = target: GlcA3S(b1-3)Gal(b1-4)GlcNAc(b1-3)Gal(b1-4)Glc
# Outline: as §1
# [38] = target: GlcNAc(a1-3)Gal(b1-4)GlcNAc
# Outline: as §1
# [39] = target: GlcNAc(a1-4)Gal(b1-3)GlcNAc
# Outline: as §1
# [40] = target: GlcNAc(a1-4)Gal(b1-4)GalNAc
# Outline: as §1
# [41] = target: GlcNAc(a1-4)Gal(b1-4)GlcNAc
# Outline: as §1
# [42] = target: GlcNAc(a1-4)Gal(b1-4)GlcNAc(b1-3)Gal(b1-4)Glc
# Outline: as §1
# [43] = target: GlcNAc(a1-4)Gal(b1-4)GlcNAc(b1-3)Gal(b1-4)GlcNAc
# Outline: as §1
# [44] = target: GlcNAc(a1-4)Gal(b1-4)GlcNAc(b1-3)Gal(b1-4)GlcNAc(b1-3)Gal(b1-4)GlcNAc
# Outline: as §1
# [45] = target: GlcNAc(a1-4)Gal(b1-4)GlcNAc(b1-3)Gal(b1-4)[Fuc(a1-3)]GlcNAc(b1-3)Gal(b1-4)[Fuc(a1-3)]GlcNAc
# Outline: as §1
binder,measurement,setting,value
B1,glycan array binding signal (z-score),[1],-0.319
same,glycan array binding signal (z-score),[2],-0.324
same,glycan array binding signal (z-score),[3],-0.347
same,glycan array binding signal (z-score),[4],-0.288
same,glycan array binding signal (z-score),[5],-0.355
same,glycan array binding signal (z-score),[6],-0.342
same,glycan array binding signal (z-score),[7],-0.337
same,glycan array binding signal (z-score),[8],-0.346
same,glycan array binding signal (z-score),[9],-0.355
same,glycan array binding signal (z-score),[10],-0.329
same,glycan array binding signal (z-score),[11],-0.315
same,glycan array binding signal (z-score),[12],-0.341
same,glycan array binding signal (z-score),[13],-0.349
same,glycan array binding signal (z-score),[14],-0.34
same,glycan array binding signal (z-score),[15],-0.324
same,glycan array binding signal (z-score),[16],-0.334
same,glycan array binding signal (z-score),[17],-0.349
same,glycan array binding signal (z-score),[18],-0.341
same,glycan array binding signal (z-score),[19],-0.315
same,glycan array binding signal (z-score),[20],-0.33
same,glycan array binding signal (z-score),[21],-0.362
same,glycan array binding signal (z-score),[22],-0.328
same,glycan array binding signal (z-score),[23],-0.331
same,glycan array binding signal (z-score),[24],2.75
same,glycan array binding signal (z-score),[25],-0.313
same,glycan array binding signal (z-score),[26],-0.34
same,glycan array binding signal (z-score),[27],-0.34
same,glycan array binding signal (z-score),[28],-0.306
same,glycan array binding signal (z-score),[29],-0.322
same,glycan array binding signal (z-score),[30],-0.329
same,glycan array binding signal (z-score),[31],-0.358
same,glycan array binding signal (z-score),[32],-0.356
same,glycan array binding signal (z-score),[33],-0.323
same,glycan array binding signal (z-score),[34],-0.349
same,glycan array binding signal (z-score),[35],-0.335
same,glycan array binding signal (z-score),[36],-0.329
same,glycan array binding signal (z-score),[37],-0.337
same,glycan array binding signal (z-score),[38],-0.336
same,glycan array binding signal (z-score),[39],-0.343
same,glycan array binding signal (z-score),[40],-0.34
same,glycan array binding signal (z-score),[41],-0.321
same,glycan array binding signal (z-score),[42],-0.323
same,glycan array binding signal (z-score),[43],-0.344
same,glycan array binding signal (z-score),[44],-0.336
same,glycan array binding signal (z-score),[45],0.07
